Results taken from the RNAGym collection of RNA variant scans (doi:10.1073/pnas.2313332121).
Variants at the background level are over-represented here.

B1: TPR 5TU (parent)
chain: GGAUCUUCUCGAUCUAACAAAAAAGACAAAUCUGCCACAAAGCUUGAGAGCAUCUUCGGAUGCAGAGGCGGCAGCCUUCGGUGGCGCGAUAGCGCCAACGUUCUCAACUAUGACACGCAAAACGCGUGCUCCGUUGAAUGGAGUUUAUCAUG

Variants of: B1
Assay: polymerase ribozyme fitness, log enrichment relative to wild type (log ratio); higher = more active; in vitro selection for triplet polymerase activity
Summary of the method: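 To select mutant libraries of each subunit of a heterodimeric triplet polymerase ribozyme, built by PCR and transcribed, each was annealed with a biotinylated primer, partner subunit and triplets, then incubated frozen at −7 °C. Extended constructs were gel-excised, captured on streptavidin beads and amplified by RT-PCR, in one round carried out in triplicate. Illumina sequencing of input and output libraries kept genotypes with ≥10 input reads and ≥1 read per output. Fitness is the base-2 logarithm of genotype enrichment relative to wild-type enrichment, from inverse-variance-weighted replicate averages.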

Polymerase ribozyme fitness (log ratio), ≤ -4.2:
GGAUCUUCUGGAUCUAACAAAAAAGACUAAUCUGCCACAAAGCUUGAGAGCAUUUUCGGAUGCAGAGGCGGCAGCCUUCGGUGGGGCGAUAGCGCCAACGUUCUCAACUAUGACAUGCAAAACGCGUGCUCCGUUGAAUGGAGUUUAUCAUG
GGAUCUUCUGGAUCUAACAAAAAAGACAAUUCUGCCACAAAGGUUGAGAGCAUCUUCAGAUGCAGAGACGGCAGCCUUCAGUGGCGCGAUAGCGCCAACGUUCUCAACUAUGCCACGCAAAACGCGUGCUCCGUUGAAUGGAGUUUAUCAUG
GGAUCUUCUGGAUCUAACAAAACAGACAAAUCUGCCACAAAGCUUGAGAGCAGAUUCGGAUGCAGAGGCGGCAGCCUUCGGUGGCGCGAUAGCGCCAACGUUCUCAACUAUGACGCGCAAAACGGGUGCUCCGUUGAAUGGAGUUUAUCAUG
GGAUCUUCUGGAUCUAACAAAAUAGACAAAUCUGCCACAAAGCUUGAGAGCAUCUUCCGAUGCAGAGGCGGCAGCCUUCGGUGGCGCGAUAGCGCGAACGUUCUCAACUAUGACACGCAAAACGCGUGCUCCGUUGAAUGUAGUUGAUCAUG
GGAUCUUCUGGAUCUAACAAAAAAGACAAAUCUGCCACUAAGCUUGAGAGCAUCUUCUGAUGCAGAGGCGGCAGCCUUCGGUGGCGCGAUAGCGCCAACGUUCUCAACUAUGACACGCAAAACGCGUGCUCCGUUGAAUGGAGUUUAUCAUG
GGAUCUUCUGGAUCUAACAAAAAAGACAAAUCUGCCACAAGGCUUGAGAGCAUCUUCGGAUGCAGAGGCGGCAGCCUUCGGUGGCGCGAUAGCGCCAACGUUCUCAACUAUGACGCGCAAAACGCGUGCUCCGUUGAAUGGAGUUUAUCAUG
GGAUCUUCUGGAUCUAACAAUAAAGACAAAUCUGCCACAAAGCUUGAGAGCAACUUCGGAUGCAGAGGCGGCAGCCUUCGGUGGCGCGAUAGGGCCAACGUUCUCAACUAUGACACGCAAAACGCGUGCUCCGUUGAAUCGAGUUUAUCAUG
GGAUCUUCUGGAUCUAACAAAAAAGACAAAUCUGCCACAAAGCUUGAGCCCAUCUUCGGAUGCAGAUGCGGCAGCCUUCGGUGGCGCGAUAGGGCCAACGUUCUCAAUUAUCACACGCAAAACGUGUGCUCCGUUGAAUGGAGUUUAUCAUG
GGAUCUUCUGGAUCUAACAAAAAUGACAAAUCUGCCACAAAGCUGGAGAGCAUCUUUGGAUGCAGAGGCGGCAGGCUUCGGUGGCGCGAUAGCGCCAACGUUGUCAACUAUGACACGCAAAACGCUUGCUCCGUUGAAUGGAGUUUAUCAUG
GGAUCUUCUGGAUCUAACAAUAAAGACAAAUCUGCCACAAAGCUUGAGAGCAUCUUCGGAUGCAGAGGCGGCAGCCUUCGGUGGCGCGAUGGCGCCAACGUUCUCAACUAUGACACGCAAAACGCGUGCUCCGUUGAAUGGAGUUUAUCAUG
GGAUCUUCUGGAUCUAACACAAAAGACAAAUCGGCCACAAAGCUUGAGAGCAUCUUCGGAUGCAGAGGCGGCAGCCUUCGGUGGCGCGAUAGAUCGAACGUUCUCAACUAUGAUACGCAAAACGCGUGCUCCGUUGAAUGGAGUAUAUCAUG
GGAUCUUCUGGAUCUAACAAAAUAGACAAAGCUGCCACAAAGCUUGAGAGCAUCUUAGGAUGCAGAGGCGGCAGCCUUCGGUGGCGGGAUAGCGCCAACGUUCUCAACUAUGACACGCAAAACGUGUGCUCCGUUGAAUGGAGUUUAUCAUG
GGAUCUUCUGGAUCUAACAAAAAUGACAAAUCUGCCACAAAGCUUGAGAGCAUCUUCGGAUGCAGAGGCGGCAGCCUUCGGUUGCGCGAUAGCGCCAACGUUAUCAACUAUGACACGCAAUACGCGUGCUCCGUUGAAUGAAGUUUAUCAUG
GGAUCUUCUGGAUCUAACAAAAAAGACAUAUCUGCCACAAAGCUUGAGAGCAUCUUCGGAUGCAGAGGCGGCAGCCUUCGGUGGCGCGAUAGCGUCAACGUUCUCAAAUAUGACACACAAAACGCGUGCUCCGUUGAAUGGACUUUAUCAUG
GGAUCUUCUGGAUCUAACACAAAAGACAAAUCUGCCACAUAGCUUGAGAGCAUCUUCGGAUGCGGAGGCUGCAGCCUUCGGUGGCGUGAUAGCGCCAACGUUCUCAACUAUGACACGCAAAACGCGUGCUCCGUUGAAUGGAGUUUAUCAUG
GGAUCUUCUGGAUCUAACAACAAAGACAAAUCUGCCACAAAGCUUGAGAGCAACUUCGGAUGCAGAGGCGGCAGCCUUCGGUGGCGCUAUAGCGCCAACGUUCUCAACUAUGACACGCAAAACGCGUGCUCCGUUGCAUGGAGUUUAUCAUG
GGAUCUUCUGGAUCUAACAAAAAAGACAAAUCUGCCACAGAGCUUGAAAGCAUCUUCGGAUGCAGAGGCCGCAGCCUUCGGUGGCGCGAUAGCGCCAACGUUCUCAACUAUGACACGCAUAACGCGUGCUCCGGUGAAUGGAGUUUAUCAUG
GGAUCUUCUGGAUCUAACAAAAAAGACAAAUCUGCCACAGAGCUUGAGAGCAUUUUCGGAUGCAGAGGCGGCAGCCUUCGGUGGCGCGAUUGCGACAACGUUCUCAACUAUGACACGCAAAACGCGUGCUACGUUGAAAGGAGUUUAUCGUG
GGAUCUUCUGGAUCUAACAAAAAAGACAAAUCUGCCACAAAGCUUGAGUGUAUCUUCGGAAGCAGAAGCGGCAGCCUUCGGUGGCGCGAUAGCGUCAACGUUCUCAACUAUGACACGCAAAACGCGUGCUCCGUUGAAUGGAGUUUAUCAUG
